Read counts are not given, so values of variants with three or more changes are uncertain.
B1: CPEB3 Ribozyme (parent)
chain: UAACAGGGGGCCACAGCAGAAGCGUUCACGUCGCAGCCCCUGUCAGAUUCUGGUGAAUCUGCGAAUUCUGCUGUAUAUCUC

Variants of: B1
Experiment: self-cleavage, relative activity (ratio to wild type); higher = more cleavage; in vitro, sequencing
How it was run: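 Relative activity was defined as the cleaved/total read fraction for a variant divided by the same fraction for the unmutated ribozyme. CPEB3 self-cleaving ribozyme libraries were made by rounds of error-prone PCR, barcoded, and transcribed in vitro with T7 RNA polymerase for 5 hours at 37°C, and cleavage ran through transcription plus a 15 min DNase I step before EDTA. Illumina sequencing of template-switched reverse transcripts gave the reads, and DNA sequencing mapped the barcodes. Averages come from three batches, using variants with at least 5 reads.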
UAACAGGGGGCCGCAGCAGGAGCGUUCACGUCGCAGCCCCUGUCAGACUCUGGUGAAUCUGUGAGUUAUGCCGUAUAUCUC gave a self-cleavage of 0.05. UAACAGGGGGCCGCAGCAGGAGCGUUCACGUCGCAGCCCCUGUCAGACUCUAGUGAAUCUGCUAAUUCUGCUGUAUAUCUC showed a self-cleavage of 0.08. UAACAGGGGGCCGCAGCAGAGGCGUUCACGUCGCAGCCCCUGUCAGAUUCUGGUGGAUCUGCGAAUUCUGCUGUAUAUCUC gave a self-cleavage of 0.38. UAACAGGGGGCCGCAGCAGAGGCGUUCACGUCGCAGCCCCUGUCAGAUUCUGGUGCAUCUGCGAAUUCUGCUGUAUAUCUC gave a self-cleavage of 0.19. Variant UAACAGGGGGCCGCAGCAGGAGCGUUCACGUCGCAGCCCCUGUCAGAUUCUGGUGAAUCUGCGAAUUCUGCUGAAUAUCUC has a self-cleavage of 1.1. With UAACAGGGGGCCGCAGCAGAGGCGUUCACAUCGCAGCCCCUGUCAGAUUCUGGUAAAUCUGCGAAUUCUGCUGUAUAUCUC the self-cleavage was 0.22. UAACAGGGGGCCGCAGCAGAGGCGUUCACGUCGCAGCCCCUGUCAGAUUCUGGUGAAUCUGCGAAUUCAGCCGUAUAUCUC showed a self-cleavage of 0.3. UAACAGGGGGCCGCAGCAGAGGCGUACACGUCGCAGCCCCAGUCAGAUUCUGGUGAACCUGCUAAUUCUGCUGCAUAUCUC gave a self-cleavage of 0.06. With UAACAGGGGGCCGCAGCAGUAGCGUUCACGUCGCAGCCCCUGUCAGAUUCUGGUGAAUCUGCGAACUCUGCUGUAUAUCUC the self-cleavage was 0.3. Work on UAACAGGGGGCCGCAGCAGAGGCGUUCACGUCGCAGCCCCUGUCAGAUUCUGGUGAAUCAGCGAAUCCUGCAGUAUAUCUC yielded a self-cleavage of 0.12. UAACAGGGGGCCGCAGCAGAGGCGUACACGUCGCAGCCCCGGUCGGAUUCAGUUGAAUCUGCGAAUUCUGCUGUAUAUCUC gave a self-cleavage of 0.05. In the case of UAACAGGGGGCCGCAGCAGUAGCGUUCACGUCGCAGUCCCUGUCAGAUUCUGGUGAAUCUGCGAAUCCUGCCGUACAUCUC, the self-cleavage is reported as 0.26. UAACAGGGGGCCGCAGCAGUAGCGUUCACGCCGCAGCCCCUGUCAGAUUCUGGUGAAUCUGCGAAUUCUGCUGUAUAUCUC showed a self-cleavage of 0.25. UAACAGGGGGCCGCAGCAGAGGCGUUCACGUCGCAGCCCCUAUCAGAUUCUGGUGAAUCUGCGAAUUCUGCAGUAUAUCUC gave a self-cleavage of 0.13. For UAACAGGGGGCCGCAGCAGACGCGUUCUCGUCGCAGCCCGUGUCCGAUUCUGGUGUGUCUGCGAAUUCUGCUGUAUAUCUC, the self-cleavage was 0.2. UAACAGGGGGCCGCAGCAGGAGCGUUCACGUCGCAGCCCCUGUCAGAUACUGGUGAAUCUGCGAAUUCUGCUGUAUAUCUC gave a self-cleavage of 0.55. For UAACAGGGGGCCGCAGCAGAGGCGUUCACGUCGUAGCCCCUGUCAGAUUCUGGUGAAUCUGCGAAUUCUGCUGUAUAUCUC, the self-cleavage was 0.02. UAACAGGGGGCCGCAGCAGAGGCGUUCACGUCGCAGCCCCUGUCAGAUUCUGAUGAAUCUACGAAUUCUGCUGUAUGUGUC gave a self-cleavage of 0.39. Variant UAACAGGGGGCCGCAGCAGUAGUGUUCACGUCGCAGCUCCUGUCAGGUUCAGGUGAAUCUGCGAAUUCUGCUGUAUAUCUC has a self-cleavage of 0.07. In the case of UAACAGGGGGCCGCAGCAGAGGCGUUCACGUCGCAGCCCCAGUCAGAUUCUGGUGAGUCUGCGUAUUCUGCUGUAUAUCUC, the self-cleavage is reported as 0.13. Work on UAACAGGGGGCCGCAGCAGUAGCGUUCACGUCGCAGCCCCUGUCAGAUGCUGGUGAAUCUGCGAAUUCUGCUGUAUAUCUC yielded a self-cleavage of 0.08. UAACAGGGGGCCGCAGCAGAGGCGUUCGCGUCGCAGCCCCAGACAGAUUCUGGUGAAUCUGCGAAUUCUGCUGUAUAUCUC showed a self-cleavage of 0.36. UAACAGGGGGCCGCAGCAGUUGCGUUCACGUCGCAGCCCCUGACAGAUUCUGGUGAAUCUGCGAAUUCUGCUGUAUAUCUC gave a self-cleavage of 0.14. For UAACAGGGGGCCGCAGCAGAGGCGUACACGUCGCAGCCCCUGCCAGAUUCCGGUGAAUCUGCGAAUUCUGCUGUAUAUUUC, the self-cleavage was 0.42. UAACAGGGGGCCGCAGCAGAGGUGUUCACGUCGCAGCGCCUAUCAGAUUCUGGAGAAUCUGCGAAUUCUGCUGUAUAUCUC showed a self-cleavage of 0.07. UAACAGGGGGCCGCAGCAGAGGCGUUCACGUCGCAGCCCCUGUCUGAUUCUGGUGUAUCUGCGAAUUCUGCUAUAUAUCUC showed a self-cleavage of 0.46. Work on UAACAGGGGGCCGCAGCAGAGGCGUUCACGUCGCAGCCCCUGUCGGAUGCUGGUGAAUCUGCGAAUUCUGCUGUAUAGCUC yielded a self-cleavage of 0.55. With UAACAGGGGGCCGCAGCAGAGGAGUUCACGUCGCAGCCCCUGUCAGAUUCUGGUGAAUCUGCGUAUUCUGCUGUAUAUCUC the self-cleavage was 0.26. For UAACAGGGGGCCGCAGCAGUAGCGUUCACGUCACGGCCCCUGUCAGAUUCUGGCGAAUCUGCGGAUUCUGCUGUAUAUCUC, the self-cleavage was 0.08. UAACAGGGGGCCGCAGCAGGAGCGUUCACGUCGCAGCCCCUGUCAGACUCUGGUGAAUCUGCGAAUUCUGCUGUAUAUCUC showed a self-cleavage of 0.38. With UAACAGGGGGCCGCAGCAGGAGCGUUCACGUCGCAGCCCCUGACAGAUUCUGGUGAAUCUGCGGAUUCUGCUGUAUAUCUC the self-cleavage was 0.4. UAACAGGGGGCCGCAGCAGAGGCGUUCACGUCGCAGCCCCUGUCAGAUUCUGGUGAAUCUGCGAAUUCUGCCGUAUAUCUC gave a self-cleavage of 0.36. UAACAGGGGGCCGCAGCAGAGGCGAUCACGUCGCAGCCCCAGUCAGAUACGGGUGAAUCUGCAAAUUCUGCUGUAUAUCUC showed a self-cleavage of 0.04. For UAACAGGGGGCCGCAGCAGUAGCGUCCACGUCGCAGCCCCUGACAGAUUCUGGUGAAUCUGCGAAUUCUGCUGUGUAUCUC, the self-cleavage was 0.16. With UAACAGGGGGCCGCAGCAGAGGCGUUCACGCCGCAGCCCCUGUCAGACUCUAGUGAAUCUGCGAAUUCUGCUGUAUAUCUC the self-cleavage was 0.03. UAACAGGGGGCCGCAGCAGUAGCGUUCACGUCGCAGCCCCUGUCAAAUUCUGGUGAGUCCACGAAUUCUGCUGUAUAUCUC gave a self-cleavage of 0.11. For UAACAGGGGGCCGCAGCAGAGGCGCUCACGUCGCAGCCCCUGUCAGAUUCUGGUGACUCAGCGAAUUCUGCUGUAUAUCUC, the self-cleavage was 0.04. For UAACAGGGGGCCGCAGCAGUAGCGUUCACGUCGCAGCCCCUGUCAGGUUCUGGUGAAUCUGCGGAUUCUGCUGUAUAUCUC, the self-cleavage was 0.41. UAACAGGGGGCCGCAGCAGGAGCGUUCACGUCGCAGCCCCUGUCAGAUUCGGGUGAAUCUGCGAAUUCUGCUGUAUAUCUC showed a self-cleavage of 0.54. UAACAGGGGGCCGCAGCAGUAGCGUUCACGUCGCAGCCCCUGUCAGAUUCUGGUGAAUCUGCGAAUUCUGCUGUUUAUCUC gave a self-cleavage of 0.14. UAACAGGGGGCCGCAGCAGAGGCGUUCAUGUCGCAGCCCCUGUCAGAUUCUGGUGGAUCUGCGAAUUCUGUUGUAUAUCUC gave a self-cleavage of 0.07. Variant UAACAGGGGGCCGCAGCAGUAGCGUUCACGUCGCAGCCCCUGUCAGAUUCUGGGGAAUCUGCAAAUUCUGCUGUAUAUCUC has a self-cleavage of 0.17. Variant UAACAGGGGGCCGCAGCAGGAGCGUUCACGUCGCAGCCCCUGUCAGACUCUGGCGAAUCUGCGAAUUCUGCUGUAUAUCUC has a self-cleavage of 0.15. For UAACAGGGGGCCGCAGCAGAGGCGUUCACGUCGCAGCCCCAGUCAGAUUCCGGCGAAUCUGCGAAUUCUGCUGUAUAUUUC, the self-cleavage was 0.03. UAACAGGGGGCCGCAGCAGACGCGAUCACGUCGCAGCCCCUGUCCGAUUCUGGUGAAUCUGCGAAUUCUGCUGUAUAUCUC showed a self-cleavage of 0.21. UAACAGGGGGCCGCAGCAGUAGCGUUCACGUCGCAGCCCCCGUCAGAUUCUGGUGAAUCUGCGAAUUCUGCUGUUUAUCUC gave a self-cleavage of 0.32. UAACAGGGGGCCGCAGCAGAGGCGUUCACGUCGCAGCCCCUGUCAGAUUCUGGUGAAUCUGCGAAUUCUGAUGUCUAUCUC gave a self-cleavage of 0.07. In the case of UAACAGGGGGCCGCAGCAGAGGCGUUCACGUCGCAGCCCCUGUCAGAUUCAGGUGAAUCUGCGAAUUCCGCUGUACAUCUC, the self-cleavage is reported as 0.31. With UAACAGGGGGCCGCAGCAGACGCGUUCACGUCGCAGCCCCUGUCCGAUUCUGGUGAAUCUGCGAAUUCUGCUGUAUAUCUC the self-cleavage was 0.25. Variant UAACAGGGGGCCGCAGCAGAGGCGUUCACGUCGCAGCCCUUGACAGAUUCUGGUGAAUCUGCGUAUUCUGCUGUAUAUCUC has a self-cleavage of 0.09. Variant UAACAGGGGGCCGCAGCAGUAGCGUUCACGUCGCGGCCCCUGUCAGAUUCUGGUGAAUCUGCGAAUUCUGCUGUAUAUCUC has a self-cleavage of 0.36. For UAACAGGGGGCCGCAGCAGGAGCGUUCACGUCGCAGCCCCUGUCAGAUUCUGGUGAAUCGGCGAAUUCUGCUGUAUAUCUC, the self-cleavage was 0.17. With UAACAGGGGGCCGCAGCAGGAGCGUUCACGUCGCAGCCCCUGUCAGAUUCUGGUGAAUCUGCGAAUUCUGCCGUAUAACUC the self-cleavage was 0.79. UAACAGGGGGCCGCAGCAGAGGCGUUCACGUCGCAGCCCCUGUCAGAUUCUGGUGAAUCUGUGAAUUCUGCUGUAUAUCUC showed a self-cleavage of 0.23. Variant UAACAGGGGGCCGCAGCAGAGGCGUUCACGUCGCAGCCCCUGUCAGAUUCUGGCGAAUCUGCGAAUCCUGCUGUAUAUCUC has a self-cleavage of 0.1. In the case of UAACAGGGGGCCGCAGCAGAGGCGUACACGUCGCAGCCCCUGUUAGGUUCUGGUGAAUCUGCGAAUUCUGCGGUGUAUCUC, the self-cleavage is reported as 0.04. Variant UAACAGGGGGCCGCAGCAGUAGCGUUCACGUCGCAGCCCCUGUCAGAUUCUGGUGGAUCUGCGAAUUCUGCUGUAUACCUC has a self-cleavage of 0.13. In the case of UAACAGGGGGCCGCAGCAGACGCGUUCACGUCGCAGCCCCUGUCAGAUUCUGGUGAAUCCGCGAAUUCCGCUGUAUAACUC, the self-cleavage is reported as 0.06. UAACAGGGGGCCGCAGCAGACGCGUUCACGACGCAGCCCCUGUCUGAUUCAGGCGAAUCUGCGAAUUCUGCAGUAUAUCUC showed a self-cleavage of 0.04. UAACAGGGGGCCGCAGCAGUAGCGUUCACGUCGCGGCCCCUGUCAGAUUCUCGUGAAUCUGCGAAUUCUGCAGUAUAUCUC showed a self-cleavage of 0.09. With UAACAGGGGGCCGCAGCAGAGGCGUUCACGUCGCAGCCCCUGUCAGAUUCUGGUGGAUCUGCGAAUUCUGCUGUAUAUCAC the self-cleavage was 0.51. With UAACAGGGGGCCGCAGCAGUAGCGCUCACGUCGCAGCCCCUGUCGGAUUCUGGUGAAUCUGCGAAUUCUGCUGUAUGUCUC the self-cleavage was 0.32. Variant UAACAGGGGGCCGCAGCAGAGGCGUUCGCGUCGCAGCCCCUUCCAGAUUCUGGUGAAUCUGCGAAUUCCGCUGUAUAUCUC has a self-cleavage of 0.28. With UAACAGGGGGCCGCAGCAGGAGCGUUCACGUCGCAGCCCCUGUCAGACUCUGGUGAAUCUGCGCAUUCUGCUGUAUAUCUC the self-cleavage was 0.16. Variant UAACAGGGGGCCGCAGCAGAGGCGUUAACGCCGUAGCCCCUGUCAGAUUCUGGUGAAUCUGCGAAUUCUGCAGUAUAUCCC has a self-cleavage of 0.05. With UAACAGGGGGCCGCAGCAGAGGCGUUCACGUCGCGGCCCCUGUCAGAUUCUGGUGAAUCUGCGAAUUCUGCUGUAUAUCUC the self-cleavage was 0.36. For UAACAGGGGGCCGCAGCAGUAGCGUUCACGUCGCAGCCCCAGUCAGAUUCUGGUGAAUCUGCGAAUUCUGCUGUAUAUCUC, the self-cleavage was 0.2. In the case of UAACAGGGGGCCGCAGCAGUAGCGUUCACGUCGCAGCCCCUGUCAGAUUCUGGUGAAUCUGCGAAUUCUGCUGUAUAUCCC, the self-cleavage is reported as 0.29.
